One molecule from patent US20260167693A1 (ANGELES THERAPEUTICS, published 2026) can be followed below.

In this experiment the target is T1, CD19-ECD-GGSG-NLuc-AcV5 (human).
T1 construct: also called CD19-GGSG-NLuc-AcV5; Flag-CD19-GGSG-NLuc-AcV5
T1 chain: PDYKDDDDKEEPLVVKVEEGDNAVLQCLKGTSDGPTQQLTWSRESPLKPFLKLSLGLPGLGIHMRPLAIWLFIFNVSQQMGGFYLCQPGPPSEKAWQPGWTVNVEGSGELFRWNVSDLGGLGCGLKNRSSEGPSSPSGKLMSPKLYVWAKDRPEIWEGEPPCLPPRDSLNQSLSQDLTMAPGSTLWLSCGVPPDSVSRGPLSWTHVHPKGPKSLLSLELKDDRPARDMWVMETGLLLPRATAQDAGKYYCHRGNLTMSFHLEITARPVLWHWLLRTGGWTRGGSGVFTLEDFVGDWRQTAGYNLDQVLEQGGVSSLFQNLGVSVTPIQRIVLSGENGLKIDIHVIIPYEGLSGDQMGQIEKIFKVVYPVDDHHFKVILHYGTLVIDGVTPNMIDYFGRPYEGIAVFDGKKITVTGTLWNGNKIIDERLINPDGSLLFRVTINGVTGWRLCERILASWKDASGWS
In words: NLuc binding assay, SIR on Jurkat-NFAT-GFP cells.

B1: CD8SP-FMC63-vL-TCRb-S57C-ECD-Bam-CD3zECDTMCP-opt-F-P2A-SP-FMC63-vH-hTCRa-T48C-ECDn-CD3zECDTMCP-opt2-F-F2A-PAC (other)
TCR beta: DIQMTQTTSSLSASLGDRVTISCRASQDISKYLNWYQQKPDGTVKLLIYHTSRLHSGVPSRFSGSGSGTDYSLTISNLEQEDIATYFCQQGNTLPYTFGGGTKLEITEDLKNVFPPEVAVFEPSEAEISHTQKATLVCLATGFYPDHVELSWWVNGKEVHSGVCTDPQPLKEQPALNDSRYCLSSRLRVSATFWQNPRNHFRCQVQFYGLSENDEWTQDRAKPVTQIVSAEAWGRADCGS[… about 150 residues …]
TCR alpha: EVKLQESGPGLVAPSQSLSVTCTVSGVSLPDYGVSWIRQPPRKGLEWLGVIWGSETTYYNSALKSRLTIIKDNSKSQVFLKMNSLQTDDTAIYYCAKHYYYGGSYAMDYWGQGTSVTVSSIQNPDPAVYQLRDSKSSDKSVCLFTDFDSQTNVSQSKDSDVYITDKCVLDMRSMDFKSNSAVAWSNKSDFACANAFNNSIIPEDTFFPSPESSCGT[… about 150 residues …]
notes: Polyprotein PRT 12512; also called 042117-B01
As for B1, the “CD19-GGSG-NLuc (RLU)” value is 6560 RLU.
